In the supplement of paper PMC3334620:
The full ranking holds about 33,000 sequences; the median of “E-score (-0.5 to 0.5)” is about -0.035, and the highest 2% start at about 0.34. Some of the results follow.

target: T1, Mot3 (UniProt P54785); assay: PBM E-score (8-mer binding enrichment) (E-score (-0.5 to 0.5)); higher = stronger / more preferred TF binding; most listed sequences are background and not binding sites; conditions: protein concentration: 200 nM; construct: GST-full length
T1 sequence: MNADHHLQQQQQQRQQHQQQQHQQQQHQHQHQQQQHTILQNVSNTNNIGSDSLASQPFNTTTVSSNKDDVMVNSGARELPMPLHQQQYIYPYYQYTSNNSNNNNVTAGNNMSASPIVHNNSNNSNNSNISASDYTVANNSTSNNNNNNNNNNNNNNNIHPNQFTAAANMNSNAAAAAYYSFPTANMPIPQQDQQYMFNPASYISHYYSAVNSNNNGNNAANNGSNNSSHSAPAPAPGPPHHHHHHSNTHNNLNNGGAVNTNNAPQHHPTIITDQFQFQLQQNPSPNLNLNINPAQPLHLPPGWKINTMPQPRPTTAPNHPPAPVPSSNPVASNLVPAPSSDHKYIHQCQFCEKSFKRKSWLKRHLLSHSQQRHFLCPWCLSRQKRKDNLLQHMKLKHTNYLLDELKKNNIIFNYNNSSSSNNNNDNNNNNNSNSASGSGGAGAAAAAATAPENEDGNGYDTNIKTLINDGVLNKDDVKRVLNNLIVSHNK
Protocol: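 Universal 'all 10-mer' protein binding microarrays (Agilent AMADID 015681) probed with GST-tagged S. cerevisiae TFs (full-length or DBD) made by in vitro transcription/translation (PURExpress), about 100-200 nM. Bound TF was detected with fluorescent anti-GST. Each ungapped 8-mer (which stands for itself and its reverse complement) is scored by the PBM enrichment score (E-score), a modified Wilcoxon-Mann-Whitney statistic from -0.5 to +0.5, computed with the Universal PBM Analysis Suite. Scale: above 0.35 generally sequence-specific binding.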

Sequence | PBM E-score
CGACCGGA | -0.204
GTGGAAGA | -0.00089
ACTGGCGG | -0.117
GTAAGTCA | 0.0347
CTAGGTGC | -0.016
CGGCCGAC | -0.252
ACAGAGAA | 0.012
TATTGAGA | -0.0398
CCTTTAAG | 0.193
ACCGGCGG | -0.284
CAAACCGC | -0.156
ACGCGCAA | 0.105
GTGACTCA | -0.0442
ACCACCTG | -0.224
GCAGTCAC | 0.305
AAGGGCTC | -0.132
CGATGCCA | -0.177
CACTCATA | -0.0651
AATTGTTG | 0.0681
GATAAAGA | -0.0297
ACAGATTG | -0.0988
CCGTAACA | 0.107
CGGCTGGC | -0.187
GCGAAAGC | -0.153
AGTACAGG | 0.16

Sequence | PBM E-score
ATAATGTC | 0.115
AGCATTTG | 0.0978
AAAGAAGG | 0.0623
CCGGGGAG | -0.237
ACCAGGGA | -0.053
AATCAAGT | 0.262
ACTAGAAT | -0.0592
AACTATGT | 0.278
ATGTAAGA | 0.309
ATTTGTCA | 0.144
ACACGACG | 0.309
ACTTCCAA | 0.0181
ATGCACAT | 0.207
CTACACAG | 0.348
AACGATTC | -0.107
ACTTTCGG | 0.0375
CAAGTCGG | -0.254
CAAAGTAA | 0.127
ACTTCAAA | -0.105
ACCCTTCG | -0.105
AATTTGGA | -0.0172
CGATATAA | 0.112
AGAATTGG | -0.185
CCGGAAAA | -0.0407
CCATCCGG | -0.252

Sequence | PBM E-score
ACCAATGC | -0.0849
AAACACAG | 0.274
CCCGTTAC | 0.0828
TCGTCAAA | 0.0184
AGCGAAGA | -0.176
AAGCTCCG | -0.214
CTACGGTA | 0.0467
CTCTTCAA | -0.205
ACGAACTA | 0.0713
ACTAATAG | 0.0666
TCGGTCCA | -0.0654
ATGGCGAC | -0.254
GTACTGTA | 0.158
AAACTGAC | -0.125
GATTTTCC | 0.192
CTTGTTAA | 0.355
AACTGCCT | 0.0139
ATCCCCTC | -0.141
CGTACGAA | 0.0691
AAACTGTC | -0.107
CGGGGTGC | -0.154
AAACTGCT | -0.15
GAGATGTA | 0.208
CTGCTGTA | 0.0529
GAAGAAGA | 0.109

Sequence | PBM E-score
CCTGCTTA | 0.0186
TCTGAACA | 0.0777
GAAACGTC | -0.111
CTATTAGA | -0.105
ATGGTCTA | -0.205
CCAATAGG | 0.145
AAGGGTTG | 0.134
CTCGCATA | -0.143
ACTAGTCA | -0.181
ATACAGAT | 0.0248
GTGCCAAA | -0.0184
CCCGATAC | -0.146
CCGGCCCA | -0.301
CTACGAAC | 0.113
AAGTTACC | 0.114
AAATATCA | 0.055
AAAATAAA | 0.117
CGGTCGAC | -0.109
GTGTGCGA | -0.0362
GTTGAGGA | 0.0128
ATCGAGTA | 0.0643
AGTTATGA | -0.113
TCCACTCA | -0.137
CTTTGTGC | 0.206
ATACCCTC | -0.09

Sequence | PBM E-score
CCGCATTA | -0.0268
CGGCGAAC | -0.223
TGATGCCA | -0.077
CGGTTGTA | 0.0332
ATTCAAAA | 0.0615
GTTAATTA | 0.215
CTTTAACA | 0.284
AGAGTGAT | 0.105
CGCGGCGA | -0.124
AACGGACG | -0.227
AGCCGGGA | -0.104
ACGGTTCT | -0.0543
ATGTCAGC | 0.0858
ATGTTCTC | 0.0354
CTACTTTC | 0.188
CCGGCTCA | -0.162
ATGCCGAG | -0.102
CTTCTTTA | 0.166
CACACGAA | 0.165
AAACCCGC | 0.00067
ATGGACTA | -0.158
CGTATGAA | -0.00092
ATGCAATC | -0.0367
ATTCCAAT | 0.113
AAGGCGCG | 0.252

Sequence | PBM E-score
CAGGCCGC | -0.203
GTAAATTA | 0.292
ACCTTCAG | 0.195
ACCAGAAG | 0.0955
ACAGACTA | 0.0937
TGGTTACA | 0.126
ATACCTTC | 0.0827
AAATTGGT | -0.00703
ATCTTCAG | -0.134
GTGTGGCA | -0.236
ATTTCCGG | -0.219
CTGCCGGA | -0.192
GCAGGCTA | -0.0385
ACGTGGGC | 0.0308
CACCTTGG | -0.037
ACGCCGAC | -0.0706
AAATATCC | 0.0319
CGGGTGGA | -0.0775
TCGGTTAA | 0.0678
CTGCGAGC | -0.2
ACTGAGAC | -0.00296
ATGGCTTC | -0.153
ATTACGCC | 0.102
CTCGATTC | -0.0008
GCAAGTAA | 0.31

Sequence | PBM E-score
AACCGAAT | 0.0425
ATCTGTCA | -0.136
AGAGGAGA | -0.23
CAACGAAC | 0.0278
AGAAATTA | 0.145
AACTACTT | 0.0912
CAAGCGGG | -0.0609
GGGGTCAC | -0.401
GTGGAACA | -0.0281
CTGCCGGC | -0.246
CTACCTAC | 0.188
CACAGGTA | 0.352
ACCCTTCA | 0.127
CCTTATAG | 0.243
ACTAAGCC | -0.172
CCATATCG | -0.129
TAGATTGA | 0.0705
TACCCACA | -0.107
GAAACAGA | -0.0175
CAATAACC | 0.0521
ATGCCGGA | -0.181
GGCCGGTA | -0.0424
